In all, about 33,000 sequences were measured (“E-score (-0.5 to 0.5)”: median about -0.054, highest 2% from about 0.39 on). Some of the results follow.
The sequences below were run against Ylr278c (UniProt Q05854) (assay: PBM E-score (8-mer binding enrichment) (E-score (-0.5 to 0.5)); higher = stronger / more preferred TF binding; most listed sequences are background and not binding sites). Conditions: protein concentration: 200 nM; construct: GST-DNA-binding domain.
In short: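 For each ungapped eight-base word taken together with its reverse complement, the Universal PBM Analysis Suite assigned an E-score. Binding data came from GST-tagged yeast transcription factors, applied at about 100-200 nM, on universal all-10-mer Agilent arrays made double-stranded by primer extension. Fluorescent anti-GST marked bound protein, and scans were normalised with masliner.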

| Sequence | PBM E-score |
| --- | --- |
| AGTTGAGG | -0.0713 |
| GCCTGGAC | -0.0494 |
| AAGGTTTC | -0.0319 |
| GCGTCTAA | -0.175 |
| AAATACTC | 0.0296 |
| AGGTCGCG | 0.0688 |
| ACCTACCA | -0.295 |
| CGAGAGGC | -0.107 |
| CGCTAGAA | -0.0105 |
| ATGGCGGG | 0.28 |
| CGGCAGCA | 0.0932 |
| TCGTGGCA | -0.204 |
| GCGCTTAA | -0.117 |
| CGACTTCC | 0.159 |
| GTCCGCAA | 0.334 |
| ATGGCAGG | 0.0995 |
| GGAGTCAC | 0.218 |
| GCCTTTCA | -0.0153 |
| AGACAAGG | -0.0396 |
| ATGGGCGA | -0.176 |
| ACTATGAA | -0.22 |
| CGCAGCTC | 0.00983 |
| AACAGACA | 0.0238 |
| AGATGCAA | -0.237 |
| AACAGCAG | -0.0354 |

| Sequence | PBM E-score |
| --- | --- |
| CAATTCCG | 0.465 |
| GACAGACC | -0.155 |
| ATCACGAC | -0.199 |
| AACAATAG | -0.241 |
| CTGATCAG | 0.0402 |
| GCACTTGA | -0.151 |
| CGTATCAA | -0.0546 |
| AGATTCTC | 0.00939 |
| ACACCTTA | -0.0662 |
| ATGCGCTC | -0.034 |
| TGATTCCA | -0.24 |
| ACATAAGA | -0.0616 |
| ATTGTCGA | -0.0143 |
| AATGCAGG | -0.0518 |
| CACATGTC | -0.157 |
| AGTGCGCA | 0.203 |
| CAGGAGCC | -0.107 |
| ACTACGAT | -0.13 |
| ATGCGCCG | 0.289 |
| GTGGCACA | -0.247 |
| AGGTTGGC | -0.0782 |
| AGTGTACC | -0.182 |
| CCGATGAA | 0.274 |
| TAGCCCGA | 0.198 |
| GCCGGCGC | 0.396 |

| Sequence | PBM E-score |
| --- | --- |
| CTGGTTCC | 0.0612 |
| CTTTTTTC | -0.0518 |
| AGAGTCCT | -0.0875 |
| GATCCTGC | -0.00417 |
| CCCGAAGC | 0.153 |
| TACTGCCA | -0.113 |
| CACTTATG | -0.0294 |
| GACCCAGA | -0.0737 |
| ATTAAAAC | 0.137 |
| GCGCCAAC | 0.0418 |
| CGCGGGAG | 0.104 |
| TCTTCTCA | 0.0619 |
| ACCAGAGT | -0.219 |
| AGGCGATC | -0.159 |
| AAGATCCC | -0.0372 |
| ACCGCGAT | 0.177 |
| CGTGGTGC | -0.084 |
| ATTGGTGA | -0.205 |
| GGATGAGA | -0.186 |
| GAGTTCAA | -0.029 |
| CCACATGC | -0.117 |
| ATTACACA | -0.0996 |
| ACTTAGGG | -0.176 |
| CGGTTTGC | 0.168 |
| AAAGATTG | -0.146 |

| Sequence | PBM E-score |
| --- | --- |
| CTGAATCC | -0.00381 |
| GGGCGGCA | 0.302 |
| AGGAATCG | 0.0706 |
| CCGAGCGG | 0.368 |
| AGCCTCAG | -0.228 |
| GTCATTTA | -0.205 |
| CATGGTGC | -0.143 |
| CACCGCGC | 0.201 |
| AAGTTTAG | -0.079 |
| AGGGTTTG | -0.0478 |
| ATCACACG | -0.0338 |
| ATTCTGAA | -0.0198 |
| CGGTTTGA | -0.079 |
| CAGGAGCA | -0.067 |
| GCGGCCGA | 0.188 |
| CATCGTCC | 0.0787 |
| AAGACTGC | -0.192 |
| ACACAGCA | -0.0577 |
| AGCGACTG | -0.344 |
| TAAATAGA | -0.0919 |
| CAAAAATG | -0.0479 |
| AAAGGTTG | -0.176 |
| CCTGACGC | -0.114 |
| AGGACAGG | -0.175 |
| CTATTTGA | -0.0257 |

| Sequence | PBM E-score |
| --- | --- |
| GAAGATAC | 0.0545 |
| TAATGTCA | -0.191 |
| CCCACCCA | 0.138 |
| AACTAGGA | -0.0121 |
| AACTATGG | -0.0862 |
| GCTAGGCC | 0.0897 |
| AGTATTAT | -0.399 |
| AGAACTTC | -0.16 |
| ACCAGAGA | -0.184 |
| GGCGAATA | 0.216 |
| GCACTAAA | 0.0873 |
| GTTAACGA | -0.203 |
| CAGCTGGA | -0.059 |
| ACTGGACG | -0.0338 |
| AGATTGTC | 0.148 |
| GGAGTCAA | 0.128 |
| AAATACGT | -0.198 |
| CTCTGCGA | -0.173 |
| CTCGTTAC | -0.336 |
| TATGTCGA | -0.131 |
| AAGGCTCC | 0.0701 |
| CCGACCCC | 0.127 |
| AACGAACG | -0.0598 |
| CTTGTCTA | -0.164 |
| CTATCACC | -0.0252 |

| Sequence | PBM E-score |
| --- | --- |
| AGATCCCA | -0.0965 |
| AGACGCTC | -0.14 |
| CTTCTTGA | -0.2 |
| CTTTACAA | -0.0164 |
| CCCCTAGC | -0.214 |
| GGCACGCA | 0.0349 |
| ACAGTAAC | -0.145 |
| ACGCGGGG | 0.352 |
| CACTGCTA | -0.205 |
| AACTAGTG | -0.182 |
| CGTCCGAG | 0.296 |
| CAATCCTA | -0.103 |
| AGTCGGGG | 0.282 |
| AGACCTAG | -0.201 |
| GGCTGACC | -0.17 |
| ATAGGCGA | -0.0977 |
| GATAACCA | 0.0922 |
| CGGTCTAC | 0.0266 |
| AACAATCG | -0.0095 |
| CGTTAGTA | -0.00349 |
| CGACGAGC | -0.102 |
| ACTGGGGC | -0.0853 |
| CCTTAAGC | -0.147 |
| TCGGAGAA | 0.465 |
| AGGACATG | -0.229 |

| Sequence | PBM E-score |
| --- | --- |
| TCGAGCAA | -0.076 |
| CGGACTTA | 0.452 |
| GACAGGTC | -0.11 |
| GCAGGCGA | -0.201 |
| CAGCGTTA | -0.121 |
| TAAATAAA | -0.133 |
| ACTAAGTA | -0.187 |
| AAGGGCGC | -0.0682 |
| CCGGCCAC | 0.303 |
| AGGTATGC | -0.106 |
| CATCTACC | -0.0486 |
| ATAGTGCG | 0.125 |
| AACACGGA | 0.315 |
| CCCTCTGC | -0.301 |
| CCGATACA | 0.316 |
| AATGGCGG | 0.286 |
| CTCAAACC | -0.0196 |
| ATGCTGCG | -0.0708 |
| CCATCTTA | 0.0144 |
| CACAGTAG | -0.239 |
| CGAGGGAG | -0.0236 |
| ACTAGTTG | -0.142 |
| GTACAGAC | -0.288 |
| AATCGGTC | 0.246 |
| AAGTCTGG | -0.326 |

| Sequence | PBM E-score |
| --- | --- |
| ATCATATG | -0.139 |
| CAGCAGCA | -0.26 |
| AGTCTGCA | -0.0655 |
| GATAACGA | -0.0507 |
| GACTCGCA | -0.0335 |
| ATGTAGAG | -0.144 |
| ATCCATCG | 0.0877 |
| CCCTCTAG | -0.311 |
| CACAATGA | -0.202 |
| CAAAATTG | -0.0658 |
| AACCCGGC | 0.313 |
| AGTCGGGA | 0.142 |
| GACTGCGC | -0.0407 |
| TAGGGGCA | -0.118 |
| CTTTAAAC | -0.0952 |
| CGGATGAA | 0.274 |
| GCTCTTCA | -0.141 |
| CATACTCA | -0.174 |
| ATAAAACA | -0.0379 |
| ACCTCGTA | -0.0382 |
| CGCCACAC | 0.0664 |
| CCATAGCA | -0.167 |
| CTCAAGGA | -0.0312 |
| AAGCGCTG | 0.0216 |
| TCAGCCGA | 0.231 |

| Sequence | PBM E-score |
| --- | --- |
| ACCCATAG | -0.203 |
| AAGACCTC | -0.145 |
| GCAGGACA | -0.0882 |
| CCTCGCTA | -0.256 |
| CTGTTACA | -0.221 |
| ATATAAGA | -0.094 |
| ACCCGTTA | 0.00406 |
| AAATAAGA | 0.0159 |
| CAATGCTA | -0.268 |
| CGTTTGCA | -0.0145 |
| CCGCTCGC | 0.318 |
| CAAGGAAC | 0.0184 |
| AGGCCAAA | -0.00385 |
| CTGTCGAA | -0.289 |
| AGTGATAA | -0.129 |
| AAGATTCG | 0.107 |
| GCTTAAGA | -0.0315 |
| AAAGCAAG | 0.116 |
| AGCTAACG | -0.226 |
